Experimental data as given in PubChem BioAssay AID1508623 (National Center for Advancing Translational Sciences (NCATS), 2021).
Hit rate of the full screen: of about 48,000 compounds, about 450 (0.94%) were called active. Another 19% or so got no clear call; they are omitted. Calls come from the whole dose curve; as a rule, active = well fitted inhibition curve with a large enough effect; inconclusive = small, poorly fitted or top-dose-only effect; inactive = no such curve, though single readings can be large or run the other way. Some of the results follow.

test: Primary qHTS for Identification of Small Molecule Inhibitors of Huntingtin Promoter Activity; conditions: HEK293 HTT promoter firefly luciferase reporter (activity 0% = vehicle and -100% = no light), 24 h; series mostly up to 57.5 µM; activity change, negative = inhibition: at the top concentration; note: nearly all actives have a fitted effect of over 50% in size
Outline: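 HEK293 luciferase promoter-reporter cells (2,500/well) plated 24 h, then compounds added at up to 57.5 uM final for 24 h at 37 °C. Firefly luminescence by Dual-Glo, normalized to vehicle (0%) and zero RLU (-100%).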

Activity change, negative = inhibition, inactive:
O=C(NCc1ccccc1Cl)c1ccc(Cn2c(SCc3ccccc3)nc3cccnc32)cc1 -24.8%
CCc1ccccc1NC(=O)c1ccc2c(SCC(=O)O)c3c(nc2c1)CCC3 0.396%
Cc1ccccc1Cn1c2ccccc2c2cnn(CC(=O)NCC(C)c3ccccc3)c(=O)c21 (stereo not drawn) 0%
CSc1ccc(CCNC(=O)C(C)n2nc(C)c3sc4ccccc4c3c2=O)cc1 (stereo not drawn) -5.41%
CCOc1ccc(C2c3c(oc4ccc(C)cc4c3=O)C(=O)N2CCCN(C)C)cc1 (stereo not drawn) 11.5%
CCOC(=O)C1CCN(C(=O)c2ccc(NC(=O)c3nsc4ccccc34)cc2)CC1 14.1%
Cc1cc(C(=O)NCc2cccc(Br)c2)c2c(C)nn(-c3ccccc3)c2n1 -9.53%
CC(=O)N1c2ccc(S(=O)(=O)NCC3CCC(C(=O)Nc4ccc(C)c(C)c4)CC3)cc2CC1C (stereo not drawn) -2.34%
COCCCn1c(=N)c(C(=O)NCc2cccnc2)cc2c(=O)n3cc(C)ccc3nc21 1.94%
COc1ccc(OC)c(Nc2ncnc3c2nc2n3CCCC2)c1 8.25%
CCOc1ccc(NC(=O)c2nc3nc(C)cc(C(F)F)n3n2)cc1 -0.747%
Cc1cc(C)c2c(-n3cccc3)c(C(=O)NCc3cccc(F)c3)sc2n1 -11.3%
CCc1nnc(SCc2ccc(OC)cc2)c2cc3sc(C)cc3n12 4.2%
Cc1cc(C)c(NC(=O)CCn2c(=O)c3cccn3c3ccccc32)c(C)c1 3.55%
CCN1CCN(C(c2ccc(SC)cc2)c2c(O)cc(C)n(Cc3ccco3)c2=O)CC1 (stereo not drawn) -7.8%
Oc1ccc(-c2nc(-c3ccccc3)c(-c3ccc(Br)cc3)[nH]2)cc1 -20.6%
Cc1nn(-c2ccccc2)c2c1cc1c(=O)n(C)c(=O)nc-1n2-c1cccc(Cl)c1 -14.7%
O=C(COC(=O)C(Cc1c[nH]c2ccccc12)NC(=O)c1ccc(Cl)cc1)c1ccc(Cl)cc1 (stereo not drawn) -25.1%
COc1ccc(-c2cc(=O)c3cc(OCC(=O)OC(C)C)ccc3o2)cc1 -12.1%
CN(C)CC/C=C1/c2ccccc2COc2ccc(CC(=O)O)cc21 -3.97%
Cc1ccc(NC(=O)Cn2c(=O)n(CCCCC(=O)NCCc3ccc(Cl)cc3)c(=O)c3ccccc32)cc1 -8.81%
COc1ccc(CCNC(=O)c2oc(=O)c3ccccc3c2-c2ccccc2)cc1OC -17.3%
COc1ccc(CNC(=O)CN2C(=O)COc3ccc(S(=O)(=O)N4CCC(C)CC4)cc32)cc1 -0.647%
COc1cc(NC(=O)CCS(=O)(=O)c2nc(-c3ccc4c(c3)OCO4)cc(C(F)(F)F)n2)cc(OC)c1OC -3.49%
COC(=O)c1sc(N2C(=O)c3oc4ccccc4c(=O)c3C2c2ccc(O)cc2)nc1C (stereo not drawn) -15.4% [at 11.5 µM]
COCCCNC(=O)CSc1nc2cc3c(cc2c(=O)n1CCCCCC(=O)NCc1ccc2c(c1)OCO2)OCO3 -8.36%
CCCCNC(=O)C1CCC(CNS(=O)(=O)c2ccc(C)cc2)CC1 (stereo not drawn) -5.29%
Cc1nc(NC(=O)c2c(-c3ccccc3)c(-c3ccccc3)nn(C)c2=O)sc1C 17.2%
Cc1cccc(N2CCN(C(=O)CN3C(=O)COc4ccc(S(=O)(=O)N5CCOCC5)cc43)CC2)c1C -7.96%
Fc1ccc(Nc2nc(SCc3ccccc3F)nc3ccccc23)cc1 -28.6%
Cc1ccc(Cn2c(SCC(=O)NCc3ccccc3Cl)nc3ccsc3c2=O)cc1 -15.1%
COc1cc(NC(=O)CCCc2nnc3n(CC(C)C)c(=O)c4sccc4n23)cc(OC)c1 -16.6%
Cc1cc([N+](=O)[O-])ccc1NC(c1nnc(-c2ccccc2)o1)c1ccccc1F (stereo not drawn) -11.1%
CC(=O)N1CCc2cc(Br)cc(S(=O)(=O)CCC(=O)N3CCN(c4ccccc4)CC3)c21 -2.12%
Cc1cc(-c2ccc(C)c(S(=O)(=O)NCCc3ccc(S(N)(=O)=O)cc3)c2)on1 -19.3%
CC(C)c1ccc(NS(=O)(=O)c2ccc3[nH]cc(C(=O)NCC4CCCO4)c(=O)c3c2)cc1 (stereo not drawn) 2.97%
CCOc1ccc2nc(N3CCCC(C(=O)Nc4ccc(OC)c(Cl)c4)C3)sc2c1 (stereo not drawn) 3.42%
CN(C)S(=O)(=O)c1ccc2c(c1)N(CC(=O)Nc1ccc(F)cc1)C(=O)CS2 -6.39%
COC(=O)c1ccccc1NC(=O)c1cc(C)nc2c1c(C)nn2-c1ccc(C)cc1 -8.25%
COc1cc(OC)c(NC(=O)n2ncc3cc(Cl)ccc32)cc1Cl -0.589%
COc1ccc(C2CC(=O)c3c([nH]c(C(=O)OC4CCCCCC4)c3C)C2)cc1 (stereo not drawn) -18.9%
COc1ccc(OC)c(NC(=O)CSC2=Nc3ccccc3C3=NC(CC(=O)NCc4ccc(F)cc4)C(=O)N23)c1 (stereo not drawn) -24.2%
COc1cccc(OCC(=O)NC2CC(=O)N(c3ccc4c(c3)OCCO4)C2)c1 (stereo not drawn) -10.2%
Cc1ccc(Cl)cc1NC(=O)NCc1cccn1Cc1ccc(F)cc1 -17.2%
CC(C(=O)O)c1ccc(C(=O)c2ccccc2)s1 (stereo not drawn) 32.6%
COc1ccc2c(c1)c1c(c(=O)n(-c3ccc(OC)c(OC)c3)c(=O)n1CC(=O)N1CCCC1)n2C -10.1%
Cc1ccc(NC(=O)N2CCN(c3nnc(C)c4c(C)n(-c5ccc(Cl)cc5)nc34)CC2)c(C)c1 -6.12%
Cc1ccc(CNC(=O)CSc2ncc(S(=O)(=O)c3ccc(C)c(Cl)c3)c(=O)[nH]2)cc1 -17.3%
CCOc1ccc(OCC)c(NC(=O)CCc2nc3cccnc3n2Cc2cccs2)c1 -24.3%
COc1cc(Cl)c(C)cc1NC(=O)CSc1nc2c(c(=O)[nH]1)CCCC2 -7.73%
CN(C)c1ccc(CNC(=O)c2cnc3sc(N4CCCCCC4)nn3c2=O)cc1 -3.6%
COC(=O)N1CCCc2cc(S(=O)(=O)N3CCN(c4ccccc4)CC3)ccc21 -18.5%
CCCCNC(=O)CCCn1c(=O)c2ccccc2n(Cc2c(C)cc(C)cc2C)c1=O -9.88%
Cc1cccc(Cc2c(C)nc3nc(SCc4ccccc4Cl)nn3c2C)c1 -7.62%
Cc1ccc(C)c(Cn2c(=O)n(CCC(=O)NCc3ccc4c(c3)OCO4)c(=O)c3sccc32)c1 -11.8%
COc1ccc(C2CC(=O)Nc3c2c(=O)n(C)c2nc4ccccc4n32)cc1 (stereo not drawn) -13.5%
COc1ccc(-c2noc(-c3ccc(C)cc3Cl)n2)cc1OC 35.6%
CS(=O)(=O)n1nc(-c2ccco2)nc1NCc1ccccc1Cl 11.8%
COc1ccc(C(=O)c2cn(Cc3cccc(C)c3)c3cc4c(cc3c2=O)OCO4)cc1 -27.1%
COc1cc(Cl)c(C)cc1NC(=O)CSc1cc(-c2ccccc2)nc(C)n1 -6.78%
CCOC(=O)c1[nH]c(C)c(C(=O)NCc2cccc(OC)c2)c1C -23.6%
CCc1ccccc1NC(=O)Cn1c(=O)n(CC(=O)NCCc2ccccc2)c(=O)c2ccccc21 -5.42%
COc1ccc(CC(=O)NCCc2csc(-c3ccc(C(F)(F)F)cc3)n2)cc1 -7.49%
COC(=O)c1sc2cccc(F)c2c1S(=O)(=O)Nc1ccc(C)cc1Cl -1.18%
Cn1c(=O)c2c(SCC(=O)NCc3ccc(F)cc3)nc(-c3ccccc3Cl)nc2n(C)c1=O 0%
NC(=O)NS(=O)(=O)c1ccc(N)cc1 3.99%
COc1ccccc1N1CCN(C(=O)CCn2nc(C)c(S(=O)(=O)N3CCCC3)c2C)CC1 -22.2%
O=C(Nc1nnc(C2CC(=O)N(c3ccc(Cl)cc3)C2)s1)c1ccco1 (stereo not drawn) -5.9%
O=C(Nc1ccc2[nH]c(=O)c(=O)[nH]c2c1)c1cccc(F)c1 4.31%
Cc1ccccc1C1=CCN(c2ncc(NC(=O)c3ccc(Cl)cc3)cc2C(=O)O)CC1 0.834%
Cc1nc2nc(SCC(=O)NCCc3ccc(Cl)cc3)nn2c(C)c1Cc1ccccc1Cl -10.4%
CC(=O)c1ccc(N2CCN(C(=O)CCn3cnc4onc(-c5ccc(F)cc5)c4c3=O)CC2)cc1 3.98%
O=C1CC(c2ccc(F)cc2)c2c(c3ccccc3[nH]c2=O)O1 (stereo not drawn) -4.6%
CCOC(=O)c1ccc(NC(=O)CSc2nccn2-c2cc(C)cc(C)c2)cc1 -23.4%
CCOc1ccccc1CNCc1c(C(=O)O)n(Cc2ccc(F)cc2)c2cc(C)ccc12 -7.92%
CC(=O)N(CC(O)CN(C(C)=O)c1c(I)c(C(=O)NCC(O)CO)c(I)c(C(=O)NCC(O)CO)c1I)c1c(I)c(C(=O)NCC(O)CO)c(I)c(C(=O)NCC(O)CO)c1I (stereo not drawn) 3.27%
CN1[C@H]2CC[C@H]1CC(OC(=O)c1c[nH]c3ccccc13)C2 (stereo partly drawn) -12.7%
CCn1cc(C(=O)NCCc2ccc(C)cc2)c(=O)c2cc(S(=O)(=O)N3CCc4ccccc4C3)ccc21 -1.94%
Cc1ccc(-c2noc(-c3cc(-c4ccc(F)cc4)n[nH]3)n2)cc1 -11.6%
O=C(Nc1c(-c2ccccc2)nc2ccccn12)c1ccccc1F -16.3%
Cc1cc(C)cc(NC(=O)CNS(=O)(=O)c2ccc3nc(C)sc3c2)c1 -15.7%
CN1C(=O)Cc2cc(S(=O)(=O)CCC(=O)Nc3ccc(OC(F)(F)F)cc3)ccc21 -27.6%
Cc1ccc(NC(=O)CN2C(=O)c3ccccc3Sc3ccc(C(=O)N4CCOCC4)cc32)c(Cl)c1 -29%
CCc1cc2c(cc3c(=O)n(CC(=O)NCc4cc(Br)ccc4OC)ncn32)s1 -3.11%
CCN(CC)S(=O)(=O)c1ccc2oc(C(=O)Nc3cc(C)ccc3OC)c(C)c2c1 -8.62%
CCCCNC(=O)CN1C(=O)COc2ccc(S(=O)(=O)N3CCCCCC3)cc21 -11.5%
CCOc1ccc(-c2nnc(SCC(=O)c3ccccc3)n2-c2ccccc2)cc1 -5.79%
COC(=O)CNC(=O)N1CCN(S(=O)(=O)c2ccc3c(ccn3C)c2)CC1 -34.8%
COc1ccc(C(=O)Nc2ccc3oc(-c4ccc5ccccc5c4)nc3c2)cc1Br -4.4%
Cn1cccc1-c1cc2n(n1)CCC(=O)N2CCCC(=O)NCc1ccc(F)cc1 15.7%
Cc1cc(=O)[nH]c2nnc(SCc3ccc(C(F)(F)F)cc3)n12 -11.6%
Cc1ccc(NC(=O)c2ncoc2-c2ccco2)cc1Cl 47.8%
Cc1cccc(C)c1NC(=O)Cn1c(SCC(=O)NCc2ccccc2)nc2ccccc21 0%
